The values below come from ChEMBL document CHEMBL4043168, “The design and SAR of a novel series of 2-aminopyridine based LRRK2 inhibitors” (Bioorg Med Chem Lett, 2017).

Test [1] has as its target Cyclin-dependent kinase 8 (Homo sapiens) (UniProt P49336). Kind of test: Inhibition of CDK8 labeling at conserved Lys2 (DLKPANILVMGEGPER) in human PBMC at 1 uM.
Test [2] has as its target Mitogen-activated protein kinase kinase kinase kinase 1 (Homo sapiens) (UniProt Q92918). The test can be described thus: Inhibition of HPK1 conserved Lys2 (DIKGANILINDAGEVR) in human PBMC at 1 uM.
Test [3] has as its target Tyrosine-protein kinase Lck (Homo sapiens) (UniProt P06239). The test can be described thus: Inhibition of LCK activation Loop (EGAKFPIKWTAPEAINYGTFTIK) in human PBMC at 1 uM.
Test [4] concerns the target Serine/threonine-protein kinase Sgk1 (Homo sapiens) (UniProt O00141). The test can be described thus: Inhibition of SGK conserved Lys1 (FYAVKVLQK) in human PBMC at 1 uM.
Test [5] addresses 5'-AMP-activated protein kinase catalytic subunit alpha-2 (Homo sapiens) (UniProt P54646). The test can be described thus: Inhibition of AMPKa2 labeling at conserved Lys2 (DLKPENVLLDAHMNAK) in human PBMC at 0.1 uM.
Test [6] concerns the target Cyclin-dependent kinase 11B (Homo sapiens) (UniProt P21127). The test can be described thus: Inhibition of CDK11 labeling at conserved Lys2 (DLKPANILVMGEGPER) in human PBMC at 0.1 uM.
Test [7] concerns the target Cyclin-dependent kinase 8 (Homo sapiens) (UniProt P49336). Kind of test: Inhibition of CDK8 labeling at conserved Lys2 (DLKPANILVMGEGPER) in human PBMC at 0.1 uM.
Test [8] addresses T1, Scaffold protein ILK (Homo sapiens) (UniProt Q13418).
T1 sequence (whole entry): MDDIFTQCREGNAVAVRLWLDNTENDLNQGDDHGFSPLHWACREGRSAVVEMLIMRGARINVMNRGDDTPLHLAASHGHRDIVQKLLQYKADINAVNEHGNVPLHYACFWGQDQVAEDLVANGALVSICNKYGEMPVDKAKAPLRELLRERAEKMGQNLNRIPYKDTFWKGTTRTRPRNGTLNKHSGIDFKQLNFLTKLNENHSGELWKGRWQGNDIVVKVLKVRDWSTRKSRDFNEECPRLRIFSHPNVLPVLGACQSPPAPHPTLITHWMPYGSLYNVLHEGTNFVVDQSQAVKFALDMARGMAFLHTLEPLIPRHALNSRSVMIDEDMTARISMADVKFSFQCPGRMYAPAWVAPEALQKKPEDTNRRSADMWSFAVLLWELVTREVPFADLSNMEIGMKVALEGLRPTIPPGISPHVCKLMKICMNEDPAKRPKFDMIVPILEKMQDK
Kind of test: Inhibition of ILK Protein Kinase Domain (ISMADVKFSFQCPGR) in human PBMC at 0.1 uM.

Test [9] concerns the target Serine/threonine-protein kinase Nek9 (Homo sapiens) (UniProt Q8TD19). Kind of test: Inhibition of NEK9 conserved Lys1 (RTEDDSLVVWKEVDLTR) in human PBMC at 0.1 uM.
In test [10] the target is Ribosomal protein S6 kinase delta-1 (Homo sapiens) (UniProt Q96S38). The test can be described thus: Inhibition of RSKL1 domain1 Protein Kinase Domain (VLGVIDKVLLVMDTR) in human PBMC at 0.1 uM.
The target in test [11] is TRAF2 and NCK-interacting protein kinase (Homo sapiens) (UniProt Q9UKE5). The test can be described thus: Inhibition of ZC2/TNIK conserved Lys2 (DIKGQNVLLTENAEVK) in human PBMC at 1 uM.
Chain of UniProt Q9UKE5 (Q9UKE5 whole entry, looked up): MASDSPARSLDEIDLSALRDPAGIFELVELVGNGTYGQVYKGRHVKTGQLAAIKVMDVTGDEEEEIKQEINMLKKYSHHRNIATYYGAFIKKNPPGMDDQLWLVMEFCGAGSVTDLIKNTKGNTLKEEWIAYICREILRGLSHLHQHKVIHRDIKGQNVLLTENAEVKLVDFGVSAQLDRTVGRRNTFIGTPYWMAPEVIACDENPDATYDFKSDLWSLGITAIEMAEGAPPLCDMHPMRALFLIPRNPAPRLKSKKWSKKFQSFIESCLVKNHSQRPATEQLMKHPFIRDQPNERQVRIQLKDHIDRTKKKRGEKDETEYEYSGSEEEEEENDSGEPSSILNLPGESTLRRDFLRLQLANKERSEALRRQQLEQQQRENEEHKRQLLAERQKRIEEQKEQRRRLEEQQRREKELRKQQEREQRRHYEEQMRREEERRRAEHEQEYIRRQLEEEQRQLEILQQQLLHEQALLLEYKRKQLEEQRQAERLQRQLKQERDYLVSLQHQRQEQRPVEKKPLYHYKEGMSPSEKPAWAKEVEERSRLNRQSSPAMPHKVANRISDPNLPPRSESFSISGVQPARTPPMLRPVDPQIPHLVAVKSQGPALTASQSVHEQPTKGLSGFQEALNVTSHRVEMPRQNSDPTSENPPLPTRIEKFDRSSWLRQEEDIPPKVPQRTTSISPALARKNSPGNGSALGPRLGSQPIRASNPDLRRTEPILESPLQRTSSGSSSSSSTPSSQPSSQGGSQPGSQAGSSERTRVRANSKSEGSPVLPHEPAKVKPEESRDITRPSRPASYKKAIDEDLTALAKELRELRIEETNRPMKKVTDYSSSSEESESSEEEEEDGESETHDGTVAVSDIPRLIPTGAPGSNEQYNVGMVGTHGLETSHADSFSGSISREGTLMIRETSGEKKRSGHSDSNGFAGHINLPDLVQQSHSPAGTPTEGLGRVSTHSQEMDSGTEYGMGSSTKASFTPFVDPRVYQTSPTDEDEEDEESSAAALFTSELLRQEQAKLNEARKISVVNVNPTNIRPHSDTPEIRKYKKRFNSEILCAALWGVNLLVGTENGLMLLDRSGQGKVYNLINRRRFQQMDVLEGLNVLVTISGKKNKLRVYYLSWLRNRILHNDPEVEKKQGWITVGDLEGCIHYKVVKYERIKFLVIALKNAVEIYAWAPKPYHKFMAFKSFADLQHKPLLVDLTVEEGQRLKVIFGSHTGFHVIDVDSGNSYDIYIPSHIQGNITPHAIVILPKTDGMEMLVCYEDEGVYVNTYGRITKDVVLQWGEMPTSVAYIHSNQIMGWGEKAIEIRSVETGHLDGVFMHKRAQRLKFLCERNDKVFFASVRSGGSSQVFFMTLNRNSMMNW

Chain of UniProt P49336 (P49336 whole entry): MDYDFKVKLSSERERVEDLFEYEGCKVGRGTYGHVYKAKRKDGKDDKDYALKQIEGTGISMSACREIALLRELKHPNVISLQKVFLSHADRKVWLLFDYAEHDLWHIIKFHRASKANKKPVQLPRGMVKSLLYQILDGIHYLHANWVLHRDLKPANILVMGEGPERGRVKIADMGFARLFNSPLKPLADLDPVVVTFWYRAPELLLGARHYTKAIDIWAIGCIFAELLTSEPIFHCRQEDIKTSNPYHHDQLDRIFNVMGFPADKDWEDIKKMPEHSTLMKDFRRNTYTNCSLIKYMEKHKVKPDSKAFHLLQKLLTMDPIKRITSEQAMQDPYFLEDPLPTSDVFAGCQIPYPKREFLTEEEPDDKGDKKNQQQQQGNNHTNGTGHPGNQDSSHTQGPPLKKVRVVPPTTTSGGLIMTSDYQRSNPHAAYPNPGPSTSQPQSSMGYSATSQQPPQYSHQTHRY
Chain of UniProt Q8TD19 (Q8TD19 whole entry, the tested form may be a part): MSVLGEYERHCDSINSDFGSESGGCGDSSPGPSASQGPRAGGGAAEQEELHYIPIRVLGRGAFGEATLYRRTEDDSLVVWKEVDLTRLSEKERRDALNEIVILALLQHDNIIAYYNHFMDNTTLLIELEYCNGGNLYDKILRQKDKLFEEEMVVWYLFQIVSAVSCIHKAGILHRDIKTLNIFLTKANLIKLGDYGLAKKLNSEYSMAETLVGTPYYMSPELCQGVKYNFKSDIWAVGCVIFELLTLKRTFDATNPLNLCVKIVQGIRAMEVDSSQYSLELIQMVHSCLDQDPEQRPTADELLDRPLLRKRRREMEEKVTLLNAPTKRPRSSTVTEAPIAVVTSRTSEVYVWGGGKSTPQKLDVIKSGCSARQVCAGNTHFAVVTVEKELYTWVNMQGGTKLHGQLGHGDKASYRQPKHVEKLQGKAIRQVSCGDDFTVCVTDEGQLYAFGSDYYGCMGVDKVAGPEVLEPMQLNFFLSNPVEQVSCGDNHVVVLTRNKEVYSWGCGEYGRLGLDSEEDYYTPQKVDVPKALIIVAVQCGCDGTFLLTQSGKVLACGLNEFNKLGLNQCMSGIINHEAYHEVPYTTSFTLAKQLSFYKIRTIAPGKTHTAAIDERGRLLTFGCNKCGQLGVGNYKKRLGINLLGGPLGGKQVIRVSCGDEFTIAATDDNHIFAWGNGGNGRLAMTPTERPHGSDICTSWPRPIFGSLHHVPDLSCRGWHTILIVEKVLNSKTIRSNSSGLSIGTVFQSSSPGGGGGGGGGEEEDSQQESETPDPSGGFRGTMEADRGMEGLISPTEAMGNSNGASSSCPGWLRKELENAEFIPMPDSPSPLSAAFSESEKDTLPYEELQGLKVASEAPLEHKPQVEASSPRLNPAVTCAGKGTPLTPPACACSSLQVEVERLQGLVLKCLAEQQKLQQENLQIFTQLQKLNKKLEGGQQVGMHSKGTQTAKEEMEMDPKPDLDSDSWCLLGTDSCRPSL
Chain of UniProt P21127 (P21127 whole entry): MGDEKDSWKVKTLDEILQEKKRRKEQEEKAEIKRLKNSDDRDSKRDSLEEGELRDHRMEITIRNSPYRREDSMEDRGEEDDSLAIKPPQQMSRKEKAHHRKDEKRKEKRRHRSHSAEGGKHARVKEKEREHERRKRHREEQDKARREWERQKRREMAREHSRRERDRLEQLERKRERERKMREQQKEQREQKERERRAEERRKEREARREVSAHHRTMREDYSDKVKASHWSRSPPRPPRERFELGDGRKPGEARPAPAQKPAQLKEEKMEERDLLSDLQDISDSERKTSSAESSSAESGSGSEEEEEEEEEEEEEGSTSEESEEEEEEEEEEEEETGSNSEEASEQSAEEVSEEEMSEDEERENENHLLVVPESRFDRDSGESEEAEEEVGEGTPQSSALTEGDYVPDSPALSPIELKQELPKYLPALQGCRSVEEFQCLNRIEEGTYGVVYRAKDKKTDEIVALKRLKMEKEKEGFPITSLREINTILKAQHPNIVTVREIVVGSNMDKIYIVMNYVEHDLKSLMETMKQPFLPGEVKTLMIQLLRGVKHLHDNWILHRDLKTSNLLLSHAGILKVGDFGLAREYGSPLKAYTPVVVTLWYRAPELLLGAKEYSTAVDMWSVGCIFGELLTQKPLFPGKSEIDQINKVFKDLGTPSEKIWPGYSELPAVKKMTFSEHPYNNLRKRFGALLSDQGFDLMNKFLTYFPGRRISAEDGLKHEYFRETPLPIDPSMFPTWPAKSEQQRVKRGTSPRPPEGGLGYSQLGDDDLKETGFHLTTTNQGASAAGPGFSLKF
Chain of UniProt P54646 (P54646 whole entry, looked up): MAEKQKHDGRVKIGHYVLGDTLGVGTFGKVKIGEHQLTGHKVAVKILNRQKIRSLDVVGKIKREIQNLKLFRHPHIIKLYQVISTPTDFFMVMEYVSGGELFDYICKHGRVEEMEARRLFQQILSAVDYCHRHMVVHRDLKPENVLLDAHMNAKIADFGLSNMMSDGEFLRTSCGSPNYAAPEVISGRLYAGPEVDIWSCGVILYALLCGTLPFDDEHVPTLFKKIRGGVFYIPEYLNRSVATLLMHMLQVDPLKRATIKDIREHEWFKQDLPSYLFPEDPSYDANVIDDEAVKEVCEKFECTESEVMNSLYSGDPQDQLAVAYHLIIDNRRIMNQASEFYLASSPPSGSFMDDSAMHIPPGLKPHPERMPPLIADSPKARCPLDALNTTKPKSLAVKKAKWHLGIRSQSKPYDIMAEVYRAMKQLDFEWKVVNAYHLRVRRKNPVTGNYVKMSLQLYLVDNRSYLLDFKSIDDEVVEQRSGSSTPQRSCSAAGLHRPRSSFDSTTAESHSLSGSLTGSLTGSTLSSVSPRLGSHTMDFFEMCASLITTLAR
Chain of UniProt P06239 (P06239 whole entry, looked up): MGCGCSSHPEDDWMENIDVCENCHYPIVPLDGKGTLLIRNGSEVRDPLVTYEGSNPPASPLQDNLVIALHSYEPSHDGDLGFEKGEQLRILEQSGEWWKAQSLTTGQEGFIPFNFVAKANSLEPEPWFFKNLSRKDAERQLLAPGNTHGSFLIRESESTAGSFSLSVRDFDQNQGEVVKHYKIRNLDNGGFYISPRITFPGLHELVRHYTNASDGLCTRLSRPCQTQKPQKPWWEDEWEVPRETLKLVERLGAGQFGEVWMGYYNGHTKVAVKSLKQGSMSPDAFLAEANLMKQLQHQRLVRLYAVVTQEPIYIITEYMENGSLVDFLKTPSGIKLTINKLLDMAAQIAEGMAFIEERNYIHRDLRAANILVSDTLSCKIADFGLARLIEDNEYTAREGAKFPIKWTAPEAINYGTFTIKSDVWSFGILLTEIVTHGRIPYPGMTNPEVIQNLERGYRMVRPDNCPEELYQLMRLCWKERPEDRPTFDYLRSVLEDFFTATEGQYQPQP

Regarding `CC(C)n1cc(-c2cc(-c3ccc(CN4CCOCC4)cc3)cnc2N)nn1`, the inhibition is 1.5% in test [1]; 4.3% in [2]; -1.6% in test [3]; -2.2% in test [4]; 14% in test [5]; 5.7% in test [6]. Moreover, the inhibition in test [7] came to 5.7%; in test [8] it was 2.5%; in test [9], 10.3%; in test [10] it was 29.2%; in test [11], 29.1%.
